Assay results reported in patent publication US20260258115A1.

Legend:
[1] = biological target: Respiratory Syncytial Virus fusion glycoprotein (RSV F) on RSV-A2 virus (Respiratory Syncytial Virus subtype A (RSV-A2)); test: cell-based or functional assay
[2] = biological target: RSV prefusion F (preF), DS-Cav1 (Respiratory Syncytial Virus); test: BLI, IgG on anti-human IgG sensor, 100 nM antigen
[3] = biological target: RSV postfusion F (postF), F deltaFP (Respiratory Syncytial Virus); test: BLI, IgG on anti-human IgG sensor, 100 nM antigen

B1: ADI-41192 (antibody, V domains shown)
VH: QVQLVQSGAEVKKPGASVKVSCRTSGYTFTDYEINWVRQAPGQGLEWMGGISAYNGKTDYAQNLQDRVTMTTDTSTSTAYMELRSLRSDDTAVYYCARIFYYDRSGYYLALFDSWGHGTLVTVSS
VL: [about 100 residues not written out]TLTFGGGTKMDIK
B1 was tested, and the Neutralization IC50 (RSV subtype A) [1] was > 25 µg/mL, the Kd [2] was 3.39 nM and the Kd [3] was 0.589 nM.
